Among all 48,000 compounds or so, about 550 (1.1%) were called active. Not shown: some 4% with an inconclusive outcome. Cut-off read from the data, not from the text of the source: active = potency below about 15 µM; inconclusive = mostly about 16 µM to 33 µM; inactive = weaker than that. Some of the results follow.
Molecular target: Lysosomal acid glucosylceramidase (Homo sapiens) (UniProt P04062)
Assay: Glucocerebrosidase;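 note: the screen sought inhibitors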
Conditions: purified enzyme, resorufin glucoside fluorescence (screen aimed at inhibitors), 20 min; series mostly up to 77 µM
Outline: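 Compounds titrated against 0.2 nM normal enzyme, 30 uM resorufin beta-D-glucopyranoside substrate, citrate/phosphate buffer with taurocholate and tween-20, pH 5.9. Reaction ran 20 min at room temperature; fluorescence (Ex 548/Em 600) gave AC50.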
Potency is the fitted concentration of half-maximal effect.

Chain of UniProt P04062 (P04062 whole entry, looked up): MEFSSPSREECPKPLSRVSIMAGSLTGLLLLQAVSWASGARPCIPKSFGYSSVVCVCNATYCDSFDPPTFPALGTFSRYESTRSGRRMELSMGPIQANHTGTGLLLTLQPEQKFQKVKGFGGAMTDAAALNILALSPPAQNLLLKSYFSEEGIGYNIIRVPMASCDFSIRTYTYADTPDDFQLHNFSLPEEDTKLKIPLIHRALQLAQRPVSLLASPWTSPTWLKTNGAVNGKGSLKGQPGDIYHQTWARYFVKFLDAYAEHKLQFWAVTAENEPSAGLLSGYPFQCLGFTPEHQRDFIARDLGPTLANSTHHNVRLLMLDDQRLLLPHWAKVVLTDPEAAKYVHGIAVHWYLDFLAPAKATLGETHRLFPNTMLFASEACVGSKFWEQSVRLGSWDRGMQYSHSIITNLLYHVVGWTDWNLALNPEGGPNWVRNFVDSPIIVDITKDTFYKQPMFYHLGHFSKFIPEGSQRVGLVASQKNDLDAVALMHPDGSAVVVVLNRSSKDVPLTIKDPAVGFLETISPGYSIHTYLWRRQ

Potency, inactive:
O=C(OCCOc1ccccc1Cl)c1ccc(-n2cnnn2)cc1 > 76.9 µM
O=C1CCCN1Cc1ncnn1-c1ccccc1 > 76.9 µM
CC(=O)NCCn1c(SCC(=O)c2ccccc2)nc2ccccc2c1=O > 76.9 µM
Cc1ccc2cc(C(c3nnnn3CC3CCCO3)N3CCc4ccccc4C3)c(=O)[nH]c2c1 (stereo not given) > 76.9 µM
CCC(C(=O)NCc1ccco1)n1nc(-c2ccc(OC)cc2)ccc1=O (stereo not given) > 76.9 µM
O=C(NC1CCCCC1)C1CCN(S(=O)(=O)N2CCCCCC2)CC1 > 76.9 µM
O=c1[nH]c2ccccc2n1CCCSc1cnc2ccccc2n1 > 76.9 µM
N#Cc1c(NC(=O)CSc2nc(-c3ccco3)cc(C(F)(F)F)n2)sc2c1CCCC2 > 76.9 µM
COC(=O)c1cc(-c2ccccc2)n[nH]1 > 76.9 µM
COc1ccc(C)cc1S(=O)(=O)N(C)CC(=O)Nc1ccc2c(c1)OCCO2 > 76.9 µM
COC(=O)CSc1ncccc1-c1nc2ccccc2[nH]1 > 76.9 µM
C=CCn1c(SCC(=O)Nc2sccc2C(N)=O)nc2sc(C)c(C)c2c1=O > 76.9 µM
CCOC(=O)N1CCN(C(=O)CSc2nnc(CNC(=O)c3ccccc3F)o2)CC1 > 76.9 µM
CC(C(=O)O)n1nc2ccccc2n1 (stereo not given) > 76.9 µM
CCOC(=O)c1cnc2ccc(C(=O)OC)cc2c1NCc1ccco1 > 76.9 µM
CCCOc1nc2c(c(=O)n(C)c(=O)n2C)n1Cc1cccc2ccccc12 > 76.9 µM
Cc1ccc(NS(=O)(=O)c2cc(C(=O)O)ccc2Cl)c(C)c1 > 76.9 µM
COc1ccc2[nH]c(=O)c(CN(C)C(=O)COc3ccccc3)cc2c1 > 76.9 µM
CCn1c(=O)c(C(=O)NCCNCCO)c(O)c2ccccc21 > 76.9 µM
O=C(CCn1c(=O)oc2ccccc21)Nc1nccs1 > 76.9 µM
O=c1nc(-c2ccccc2)n(-c2ccccc2)c2ncccc12 > 76.9 µM
CC(C)Cc1nc2oc3c(N4CCN(C)CC4)ncnc3c2c2c1CCCC2 > 76.9 µM
COC(=O)c1[nH]c2cc(OC)ccc2c1NC(=O)CCN1CCN(c2cccc(C)c2C)CC1 > 76.9 µM
CCN1C(=O)NC(c2cc(Br)ccc2OC)C(C(=O)OC)=C1C (stereo not given) > 76.9 µM
O=C(CC1CCCC1)OCn1nnc2ccccc2c1=O > 76.9 µM

Reference: PubChem BioAssay AID360 (National Center for Advancing Translational Sciences (NCATS), 2006)
